From paper PMC4336329 (PLoS ONE, 2015)
Among all 310,000 compounds or so, about 2,200 (0.71%) showed an effect of 50% or more. Effects have a minus sign here. This is one part of the list.

molecular target: human ether-à-go-go-related gene (hERG) potassium channel (human, UniProt Q12809); experiment: primary screen, population patch clamp on CHO cells stably expressing hERG
Sequence (Q12809 whole entry, looked up): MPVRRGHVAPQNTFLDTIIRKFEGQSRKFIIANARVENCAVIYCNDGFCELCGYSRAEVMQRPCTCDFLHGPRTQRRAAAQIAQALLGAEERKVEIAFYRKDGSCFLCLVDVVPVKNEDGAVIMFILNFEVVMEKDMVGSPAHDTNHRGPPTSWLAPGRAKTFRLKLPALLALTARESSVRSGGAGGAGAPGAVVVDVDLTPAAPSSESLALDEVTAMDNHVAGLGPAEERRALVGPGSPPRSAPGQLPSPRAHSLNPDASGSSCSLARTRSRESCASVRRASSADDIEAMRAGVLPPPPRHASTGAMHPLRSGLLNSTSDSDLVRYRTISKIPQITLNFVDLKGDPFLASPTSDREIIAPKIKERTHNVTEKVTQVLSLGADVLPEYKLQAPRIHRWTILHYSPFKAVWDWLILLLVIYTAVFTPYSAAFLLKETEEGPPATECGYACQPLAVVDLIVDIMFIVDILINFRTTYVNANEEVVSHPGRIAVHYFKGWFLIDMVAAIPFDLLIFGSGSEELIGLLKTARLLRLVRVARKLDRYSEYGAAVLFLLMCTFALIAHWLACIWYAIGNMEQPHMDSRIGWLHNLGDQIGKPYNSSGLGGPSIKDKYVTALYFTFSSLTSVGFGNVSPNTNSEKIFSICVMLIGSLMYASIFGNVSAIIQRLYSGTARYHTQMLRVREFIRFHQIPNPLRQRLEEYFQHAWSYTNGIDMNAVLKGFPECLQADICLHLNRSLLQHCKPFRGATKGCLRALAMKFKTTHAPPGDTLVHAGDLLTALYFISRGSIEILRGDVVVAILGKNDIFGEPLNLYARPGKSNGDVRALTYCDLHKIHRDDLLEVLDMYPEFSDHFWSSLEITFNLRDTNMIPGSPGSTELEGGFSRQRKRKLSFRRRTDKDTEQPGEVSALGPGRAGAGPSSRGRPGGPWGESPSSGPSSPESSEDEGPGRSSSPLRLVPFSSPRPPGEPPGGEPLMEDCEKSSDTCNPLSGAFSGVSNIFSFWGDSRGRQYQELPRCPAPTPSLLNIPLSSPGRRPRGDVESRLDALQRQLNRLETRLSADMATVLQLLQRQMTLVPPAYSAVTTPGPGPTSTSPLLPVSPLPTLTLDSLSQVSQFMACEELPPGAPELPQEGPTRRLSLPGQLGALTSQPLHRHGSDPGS

Compound	hERG current change (%, negative = inhibition) at 1uM
Cc1ccc(CSCCNC(=O)c2cccc([N+](=O)[O-])c2)cc1	-13.8%
Cc1ccc(-c2nc(CNC(=O)c3ccco3)cs2)cc1	4.02%
Cc1cccc(C(=O)NCCc2csc(C)n2)c1	11.8%
CC1Oc2ccccc2OC1(O)c1ccccn1 (stereo not shown)	7.58%
Cc1ccc(Cl)cc1OCC(=O)NCCOC(=O)Nc1sc(=S)n(C)c1C	2.06%
CCOc1ccc(NC(=O)C2CCCN2S(=O)(=O)c2ccc3c(c2)C(C)(C)C(=O)N3C)cc1 (stereo not shown)	2.55%
COc1cccc(-n2c(=O)c3ccccc3n3c(=S)[nH]nc23)c1	18%
CC(=O)c1cccc(NC(=O)N2CCCC2C(=O)Nc2c(C)cccc2C)c1 (stereo not shown)	10.1%
CC(C)C(=O)N1CCN(c2ccccc2NC(=O)COc2ccccc2)CC1	-6.76%
c1ccc2c(c1)[nH]c1ccncc12	3.65%
Cc1ccc(NC(=O)c2ccc(OC(=O)c3ccco3)cc2)cc1	14.1%
Cc1nc(SCC(=O)NCCc2ccccc2)nc(C)c1C	16.6%
O=[N+]([O-])c1ccccc1CN1CCN(S(=O)(=O)c2ccccc2)CC1	7.59%
O=C(Cc1cccs1)NCCc1csc(-c2ccccc2)n1	-3.13%
CCOC(=O)c1c(O)c(Cl)c(C)[nH]c1=O	16.3%
COc1ccc(-c2nc(CN3CCCCC3c3cccnc3)c(C)o2)c(F)c1 (stereo not shown)	-12.2%
CCC(=O)Nc1ccc(N2CCN(Cc3ccccc3)CC2)cc1	-0.42%
CCC(=O)c1ccc(OCC(O)CN2CCc3ccccc3C2)cc1.Cl (stereo not shown)	-40.6%
COc1ccc(N2CCN(C(=O)COc3ncnc4ccccc34)CC2)cc1	3.13%
O=C(CN1C(=O)NC2(CCCC2)C1=O)Nc1ccccc1F	-6.53%

Compound	hERG current change (%, negative = inhibition) at 1uM
CC1SC(=NC(=O)C(C)N2C(=O)c3ccccc3C2=O)NC1=O (stereo not shown)	13.4%
O=C(c1ccc(CS(=O)Cc2ccc(Cl)cc2)o1)N1CCN(c2ccccn2)CC1 (stereo not shown)	-6.98%
Cc1nn(Cc2ccc(Cl)cc2)c(C)c1NC(=O)CCCn1nc(C)c([N+](=O)[O-])c1C	-27.5%
COC(=O)c1ccc([C@H](NC(=O)c2ccco2)[C@]2(C)C[C@H]2C2CCCCC2)cc1	11.6%
O=C(O)Cc1ccc(OCc2ccc(Cl)nc2)cc1	17.6%
CCC/C(=N/NC(=O)c1cccc(Cl)c1)c1ccccc1	9.19%
Cc1ccc2cc(C3CC(c4ccco4)=NN3C(=O)CCC(=O)O)c(Cl)nc2c1 (stereo not shown)	-0.0403%
O=C(Nc1cccc(-c2csc(Nc3ccc(Cl)cc3)n2)c1)c1cc([N+](=O)[O-])cc(C(F)(F)F)c1	12.6%
COc1ccc(C2=NOC(C(=O)NCc3ccccn3)C2)cc1 (stereo not shown)	15.2%
Cn1c(=O)c(N=O)c(N)n(Cc2ccccc2)c1=S	6.13%
CC(=O)c1ccc(C(C)(C)c2ccc(C(C)=O)s2)s1	7.15%
CCOc1ccc(CN2C(=O)c3ccccc3C2C(=O)NCc2cccnc2)cc1 (stereo not shown)	-3.35%
COc1ccc(C(=O)Nc2ccc(C3=NNC(=O)CC3C)cc2NC(=O)c2ccc(OC)cc2)cc1 (stereo not shown)	8%
CCCc1nc(-c2cc3ccccc3[nH]c2=O)no1	15.6%
Nc1ccc(N2CCCCC2)cc1N1CCCCC1	8.38%
Cc1cc([N+](=O)[O-])cc2c1NCC1CC=CC21 (stereo not shown)	-3.07%
O=C(Nc1ccccc1F)N1CCc2ccccc2C1	18%
Cc1cc(C)cc(-n2ncc3c2CCCC3NC(=O)CN2CCCC2=O)c1 (stereo not shown)	17.3%
CC(=O)N1c2ccc(S(=O)(=O)N(C)CC(=O)NC(C)c3ccccc3)cc2CC1C (stereo not shown)	7.71%
COc1cccc(OCCNc2cc(Cl)ccc2[N+](=O)[O-])c1	18.1%

Compound	hERG current change (%, negative = inhibition) at 1uM
CCOC(=O)Cc1csc(SCC(=O)N(CC(C)C)c2c(N)n(Cc3ccccc3)c(=O)[nH]c2=O)n1	7.33%
N#CC1(NC(=O)COC(=O)c2ccc(Cl)nc2)CCCCC1	17.7%
CC(=O)c1cc2c(cc1N)OCO2	5.27%
COc1ccc(N2CC(C)(C)C2=O)cc1	19.4%
CCO[C@@H]1OC(C(=O)N2CCN(Cc3ccccc3)CC2)=C[C@H](c2ccc(C(F)(F)F)cc2)[C@H]1CCCO	12.7%
O=C(CSc1nnc(CNC(=O)c2cccs2)o1)NC1CCCCC1	-12.7%
CN(C)S(=O)(=O)Nc1ccc(C(=O)O)cc1	-8.27%
CCOCCN(C(=O)c1ccccc1Cl)c1ccccc1	13.5%
CCOC(=O)CCNC(=O)N1CCCC(CNS(=O)(=O)c2cccs2)C1 (stereo not shown)	12.8%
O=C(c1cccc(C(F)(F)F)c1)C1CCCN(C(=O)CCCn2cncn2)C1 (stereo not shown)	-18.7%
CC1CCN(S(=O)(=O)c2ccc(C(=O)N3CCCC(C(F)(F)F)C3)cc2)CC1 (stereo not shown)	5.83%
CC(C)(C)c1ccc(C(=O)NNc2cc(Cl)cc(Cl)c2)cc1	12.9%
COCC1CCN(Cc2c(C(=O)N3CCc4ccccc4C3)nc3ccc(Cl)cn23)C1 (stereo not shown)	7.32%
COc1ccc2oc(=N)c(C(=O)Nc3ccccc3Cl)cc2c1	-1.45%
CC1CCC/C=C/C2CC(O)CC2C(O)/C=C/C(=O)O1 (stereo not shown)	6.33%
CCOc1ccc(C(=O)n2cnnc2N)cc1	16.9%
Cc1ccc(C)c(OCC(=O)Nc2ccccc2C(=O)NC2CC2)c1	2.82%
CC(=O)Nc1ccc(-c2csc(NC=C3C(=O)OC(C)(C)OC3=O)n2)cc1	17.8%
